The whole screen tested about 150,000 compounds, of which about 540 (0.36%) showed an effect of 50% or more. The list shows a part of the results.
test system: Plasmodium falciparum; assay: Primary screen in NF54 nanoGlo assay, in single point, at 2uM, 72h; a lower Z score goes with more inhibition; assay type: functional, Erythrocyte; conditions: timepoint 72 hour

Row | Compound | % Inhibition | Z score
1 | O=C(NCc1nnc[nH]1)c1cc(-c2ccccc2)ccc1Cl | -13% | 1.36
2 | COc1ccc(-n2c(-c3ccccc3)cn(-c3ccccc3)c2=O)cc1 | -1% | 0.11
3 | Cc1nc([C@H](C)NC(=O)Cc2sc(N)nc2C)c(C)s1 | -12% | 1.61
4 | COc1ccc(C(C)(C)c2nc([C@H]3CN4CCC[C@H]4CO3)no2)cc1 | -3% | 0.53
5 | O=C(NC[C@H](O)Cc1ccccc1)c1cccc2c1CCOC2 | -6% | 1.1
6 | Cc1ccc(C(=O)N2CC3CCC3(Nc3ncncc3Cl)C2)o1 (stereo not drawn) | -10% | 1.05
7 | O=C1NC(=O)C2(CCCN(C(=O)C3CCCc4sccc43)C2)N1 (stereo not drawn) | 2% | -0.4
8 | Cc1ncc(C)c(NC(=O)[C@H]2C[C@@H]2c2ccc(OC(F)F)cc2)n1 | -1% | 0.14
9 | O=C(NC[C@H]1COc2ccccc2O1)C1CCN(C(=O)c2ccco2)CC1 | -10% | 1.33
10 | O=C(Cc1ccc2cn[nH]c2c1)NC1CCC2CCCC2C1 (stereo not drawn) | -3% | 0.41
11 | CCOc1cccc(CCNC(=O)c2cc(C)sn2)n1 | 2% | -0.25
12 | COc1cccc2c(C(=O)N[C@H]3CCN(C(C)(C)C)C3=O)n[nH]c12 | -12% | 1.33
13 | C[C@@H]1CC[C@H](CO)N1C(=O)Cc1cccc(C(F)(F)F)n1 | 3% | -0.37
14 | CCC1(CC)NC(=O)N(c2ccc(OC)nn2)C1=O | -9% | 1.23
15 | CCN1CCN(C(=O)c2cnc(-c3ccc(F)cc3)nc2N(CC)CC)CC1 | -7% | 1.13
16 | Cc1cccc2c1OCC[C@H]2NC(=O)N1CC2CCC(C1)O2 | -11% | 2.33
17 | CC(C)[C@H](NCc1ccc2c(c1)OCCO2)c1nc(-c2ccccc2)no1 | -3% | 0.34
18 | CCc1nnc(CN(C)C(=O)NCCc2noc(C3CCCC3)n2)o1 | 1% | -0.13
19 | COc1ccc(CCC(=O)N2CCn3c2nc2ccccc23)cc1 | 1% | -0.24
20 | Cc1cn([C@@H](C)c2ccccc2)nc1NC(=O)NCC1CC1 | -3% | 0.52
21 | CCN(CC)S(=O)(=O)c1ccc(NC(=O)CN2Cc3ccccc3C[C@H]2C(=O)N2CCCC2)cc1 | -2% | 0.23
22 | Cc1cccc(N2CCN(c3ccc(-c4nc(-c5cccc(F)c5)no4)cn3)C[C@@H]2C)c1 | -4% | 0.72
23 | CC(C)(C)c1ncc(C(=O)N2CCc3c(CN4CCCC4)cccc32)cn1 | -15% | 2.85
24 | O=C(NCc1c(F)cccc1F)N1C2CCC1CC(Oc1ccccn1)C2 (stereo not drawn) | -7% | 1.31
25 | O=C(CCC1CCN(S(=O)(=O)c2cccc(F)c2)CC1)NCCN1CCOCC1 | -10% | 1.37
26 | Cc1cc(C(=O)NCCOCCn2ccnc2)nn1C | -13% | 1.45
27 | Nc1ccc(Oc2nccs2)c(Cl)c1 | -2% | 0.26

Row | Compound | % Inhibition | Z score
28 | CN(C[C@H]1CCCO1)c1ncnc2[nH]ccc12 | 7% | -0.83
29 | CCn1nc2n(c1=O)CCN(S(=O)(=O)c1ccc(OC)c(OC)c1)[C@@H]2c1ccccc1 | -10% | 1.53
30 | COCCn1c(C[C@H]2CCN(S(=O)(=O)c3cc(F)cc(F)c3)C2)nc2cccnc21 | -1% | 0.11
31 | CN1CCN(C(=O)[C@H]2CCCN(c3nnc4ccc(C(F)(F)F)cn34)C2)CC1 | -7% | 0.78
32 | Cc1cc(-c2nnc(CCC(=O)NC[C@@H]3C[C@@H]4C=C[C@@H]3C43CC3)o2)no1 | 7% | -0.9
33 | CCN1CCN([C@@H](c2ccncc2)c2c(O)cc(C)n(Cc3ccccc3)c2=O)CC1 | 14% | -1.81
34 | CCn1cc(C2OCCC2CNCc2cnc3cc(C)ccn23)cn1 (stereo not drawn) | -8% | 1.44
35 | Cc1ncnc(N[C@@H](C)CCCC(C)(C)O)c1C | -1% | 0.07
36 | C[C@H](NC(=O)NC[C@@H]1CCC[C@H]1O)c1nccs1 | 0% | -0.09
37 | Cc1ncc2n1C[C@@H](C(=O)NCc1ccc(CO)c(F)c1)CC2 | -7% | 0.84
38 | Cc1c(NC[C@H](C)c2ccccc2)cnn1C | -3% | 0.4
39 | CCn1nnc2cc(C(=O)N(C)c3ccccc3)ccc21 | -9% | 1.64
40 | Cc1cc(C)cc(CN(C)C(=O)c2cc(-c3ccn(C)n3)on2)c1 | 1% | -0.07
41 | Cc1ccc(C(=O)N[C@@H]2C[C@H]3CC[C@@H]2C3)cc1 | -2% | 0.29
42 | C[C@@H]1CN(C2CCN(C(=O)CCn3nnc4ccccc43)CC2)C[C@H](C)O1 | -13% | 2.76
43 | COCCOc1cc(Cn2cccn2)ccn1 | 6% | -0.82
44 | CC(Nc1ncc(C(F)(F)F)cc1Cl)C1CCCO1 (stereo not drawn) | -1% | 0.1
45 | CC/C=C(\C)CN1C[C@H](N(C)C)C[C@H]1CO | 3% | -0.54
46 | Cc1ccsc1CNC(=O)N(CC(C)(C)O)C(C)C | -3% | 0.44
47 | CCc1ccc(N2C(=O)c3cc4ccc(OC)cc4n3C[C@@]2(C)C(=O)NC2CCCCCCC2)cc1 | 0% | 0.06
48 | Cn1nc(C(=O)N2CC(C)(C)OC(C)(C)C2)cc1OC(F)F | -1% | 0.27
49 | CC1(C)CN(C(=O)c2cn(C(C)(C)C)nn2)C[C@@H]1O | -2% | 0.42
50 | O=C(Nc1cc(F)ccc1F)N1CC[C@H](Oc2ncccc2C(=O)N2CCOCC2)C1 | 5% | -0.78
51 | CCn1ccc(-c2cc(C(=O)Nc3cccc(Cl)c3C)c3c(C)noc3n2)n1 | 28% | -3.22
52 | CCOCCC1(CNC(=O)c2cc(C)n[nH]2)CCC1 | 32% | -4.64
53 | CCn1nccc1C(=O)N1C[C@@H](Oc2ccccc2)C[C@@H]1C(=O)N1CCOCC1 | -11% | 2.19
54 | CCc1cccc(NC(=O)Cn2ccc3ccc(-c4nnc(C)o4)cc32)c1 | 78% | -9.29
